# Laboratory results from the supplement of paper PMC8728848.
# The other results are listed elsewhere or left out.
# Assays:
# Assay in all cases: glycan array binding signal (z-score within array); higher = stronger binding
# Conditions in all cases: glycan notation: IUPAC condensed, linker removed
# Gal6S(b1-4)Glc6S = target: Gal6S(b1-4)Glc6S
# Procedure, shortened: (§1)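 Negative Z-scores can be read as non-binding. The Z-score is calculated within each array and then averaged across arrays of one protein sequence at different concentrations or buffers and across linkers. Arrays, 3228 in all, were curated from the Consortium for Functional Glycomics database and kept only where the protein sequence was available.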
# Gal6S(b1-4)GlcNAc = target: Gal6S(b1-4)GlcNAc
# Procedure, shortened: as §1
# Gal6S(b1-4)GlcNAc6S = target: Gal6S(b1-4)GlcNAc6S
# Procedure, shortened: as §1
# GalNAc(a1-3)Gal = target: GalNAc(a1-3)Gal
# Procedure, shortened: as §1
# GalNAc(a1-3)GalNAc = target: GalNAc(a1-3)GalNAc
# Procedure, shortened: as §1
# [1] = target: GalNAc(a1-3)GalNAc(b1-3)Gal(a1-4)Gal(b1-4)Glc
# Procedure, shortened: as §1
# [2] = target: GalNAc(a1-3)GalNAc(b1-3)Gal(a1-4)Gal(b1-4)GlcNAc
# Procedure, shortened: as §1
# GalNAc(b1-3)Gal = target: GalNAc(b1-3)Gal
# Procedure, shortened: as §1
# [3] = target: GalNAc(b1-3)Gal(a1-4)Gal(b1-4)GlcNAc
# Procedure, shortened: as §1
# [4] = target: GalNAc(b1-3)Gal(a1-4)Gal(b1-4)GlcNAc(b1-3)Gal(b1-4)Glc
# Procedure, shortened: as §1
# [5] = target: GalNAc(b1-3)Gal(a1-6)Gal(b1-4)Glc
# Procedure, shortened: as §1
# GalNAc(b1-3)GalNAc = target: GalNAc(b1-3)GalNAc
# Procedure, shortened: as §1
# GalNAc(b1-3)GlcNAc = target: GalNAc(b1-3)GlcNAc
# Procedure, shortened: as §1
# GalNAc(b1-4)Gal(b1-4)Glc = target: GalNAc(b1-4)Gal(b1-4)Glc
# Procedure, shortened: as §1
# GalNAc(b1-4)GlcNAc = target: GalNAc(b1-4)GlcNAc
# Procedure, shortened: as §1
# [6] = target: GalNAc(b1-4)GlcNAc(b1-2)Man
# Procedure, shortened: as §1
# [7] = target: GalNAc(b1-4)GlcNAc(b1-2)Man(a1-3)[GalNAc(b1-4)GlcNAc(b1-2)Man(a1-6)]Man(b1-4)GlcNAc(b1-4)GlcNAc
# Procedure, shortened: as §1
# [8] = target: GalNAc(b1-4)GlcNAc(b1-3)GalNAc(b1-4)GlcNAc
# Procedure, shortened: as §1
# GalNAc(b1-4)GlcNAc6S = target: GalNAc(b1-4)GlcNAc6S
# Procedure, shortened: as §1
# GalNAc(b1-6)GalNAc = target: GalNAc(b1-6)GalNAc
# Procedure, shortened: as §1
# GalNAc3S(b1-4)GlcNAc = target: GalNAc3S(b1-4)GlcNAc
# Procedure, shortened: as §1
# GalNAc3S(b1-4)GlcNAc3S = target: GalNAc3S(b1-4)GlcNAc3S
# Procedure, shortened: as §1
# [9] = target: GalNAc3S(b1-4)[Fuc(a1-3)]GlcNAc
# Procedure, shortened: as §1
# GalNAc4S6S(b1-4)GlcNAc = target: GalNAc4S6S(b1-4)GlcNAc
# Procedure, shortened: as §1
# GalNAc6S(b1-4)GlcNAc = target: GalNAc6S(b1-4)GlcNAc
# Procedure, shortened: as §1
# Glc(a1-4)Glc = target: Glc(a1-4)Glc
# Procedure, shortened: as §1
# [10] = target: Glc(a1-4)Glc(a1-4)Glc(a1-4)Glc
# Procedure, shortened: as §1
# Glc(a1-6)Glc(a1-6)Glc = target: Glc(a1-6)Glc(a1-6)Glc
# Procedure, shortened: as §1
# [11] = target: Glc(a1-6)Glc(a1-6)Glc(a1-6)Glc
# Procedure, shortened: as §1
# Glc(b1-4)Glc = target: Glc(b1-4)Glc
# Procedure, shortened: as §1
# Glc(b1-6)Glc = target: Glc(b1-6)Glc
# Procedure, shortened: as §1
# GlcA(b1-3)Gal = target: GlcA(b1-3)Gal
# Procedure, shortened: as §1
# GlcA(b1-3)GlcNAc = target: GlcA(b1-3)GlcNAc
# Procedure, shortened: as §1
# GlcA(b1-6)Gal = target: GlcA(b1-6)Gal
# Procedure, shortened: as §1
# [12] = target: GlcA3S(b1-3)Gal(b1-4)GlcNAc(b1-2)Man
# Procedure, shortened: as §1
# [13] = target: GlcA3S(b1-3)Gal(b1-4)GlcNAc(b1-3)Gal(b1-4)Glc
# Procedure, shortened: as §1
# [14] = target: GlcNAc(a1-3)Gal(b1-4)GlcNAc
# Procedure, shortened: as §1
binder,measurement,setting,value
FimD (Bordetella pertussis) (protein) MPARVISFCGAALAVWAGLAVQPAMAVDPPVDCGRALGLHFWSSASLISDQTPDGTLIGKPVVGRSLLSKSCKVPDDIKEDLSDNHDGEPVDIVLELGSNYKIRPQSYGHPGIVVDLPFGSTEETGIAIYIDFGSSPMQKVGERQWLYPQKGEVLFDVLTINGDNAEVRYQAIKVGPLKRPRKLVLSQFPNLFTYKWVFMRGTSQERVLAQGTIDTDVATSTIDLKTCRYTSQTVSLPIIQRSALTGVGTTLGMTDFQMPFWCYGWPKVSVYMSATKTQTGVDGVALPATGQAAGMASGVGVQLINGKTQQPVKLGLQGKIALPEAQQTESATFSLPMKAQYYQTSTSTSAGKLSVTYAVTLNYD,glycan array binding signal (z-score),Gal6S(b1-4)Glc6S,-0.03
same,glycan array binding signal (z-score),Gal6S(b1-4)GlcNAc,0.347
same,glycan array binding signal (z-score),Gal6S(b1-4)GlcNAc6S,0.074
same,glycan array binding signal (z-score),GalNAc(a1-3)Gal,-0.016
same,glycan array binding signal (z-score),GalNAc(a1-3)GalNAc,-0.392
same,glycan array binding signal (z-score),[1],-0.169
same,glycan array binding signal (z-score),[2],0.178
same,glycan array binding signal (z-score),GalNAc(b1-3)Gal,0.008
same,glycan array binding signal (z-score),[3],0.355
same,glycan array binding signal (z-score),[4],-0.24
same,glycan array binding signal (z-score),[5],0.203
same,glycan array binding signal (z-score),GalNAc(b1-3)GalNAc,-0.207
same,glycan array binding signal (z-score),GalNAc(b1-3)GlcNAc,-0.223
same,glycan array binding signal (z-score),GalNAc(b1-4)Gal(b1-4)Glc,0.029
same,glycan array binding signal (z-score),GalNAc(b1-4)GlcNAc,1.38
same,glycan array binding signal (z-score),[6],-0.434
same,glycan array binding signal (z-score),[7],0.05
same,glycan array binding signal (z-score),[8],-0.036
same,glycan array binding signal (z-score),GalNAc(b1-4)GlcNAc6S,-0.109
same,glycan array binding signal (z-score),GalNAc(b1-6)GalNAc,-0.278
same,glycan array binding signal (z-score),GalNAc3S(b1-4)GlcNAc,0.047
same,glycan array binding signal (z-score),GalNAc3S(b1-4)GlcNAc3S,-0.17
same,glycan array binding signal (z-score),[9],-0.119
same,glycan array binding signal (z-score),GalNAc4S6S(b1-4)GlcNAc,-0.402
same,glycan array binding signal (z-score),GalNAc6S(b1-4)GlcNAc,0.257
same,glycan array binding signal (z-score),Glc(a1-4)Glc,-0.548
same,glycan array binding signal (z-score),[10],-0.006
same,glycan array binding signal (z-score),Glc(a1-6)Glc(a1-6)Glc,-0.314
same,glycan array binding signal (z-score),[11],-0.049
same,glycan array binding signal (z-score),Glc(b1-4)Glc,0.068
same,glycan array binding signal (z-score),Glc(b1-6)Glc,-0.384
same,glycan array binding signal (z-score),GlcA(b1-3)Gal,-0.2
same,glycan array binding signal (z-score),GlcA(b1-3)GlcNAc,0.053
same,glycan array binding signal (z-score),GlcA(b1-6)Gal,0.112
same,glycan array binding signal (z-score),[12],-0.377
same,glycan array binding signal (z-score),[13],-0.183
same,glycan array binding signal (z-score),[14],-0.414
